Screen size: about 94,000 compounds; about 4,000 (4.3%) were called active. The shares of active, inactive and inconclusive entries below differ from those in the screen. Calls follow the shape of the dose curve; as a rule, active = well fitted inhibition curve with a large enough effect; inconclusive = small, poorly fitted or top-dose-only effect; inactive = no such curve, though single readings can be large or run the other way. Potencies of inconclusive entries are doubtful fits and often do not repeat.
Experiment: Cytotoxic Profiling in NIH 3T3 Cell Line of Diverse Libraries Using Quantitative High-Throughput Screening; also: nearly all actives have a fitted effect of over 55% in size
Conditions: NIH 3T3 viability, CellTiter-Glo ATP luminescence, 48-72 h; series mostly up to 96.7 µM
Outline: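 Mouse fibroblast NIH 3T3 cells, 400 per well, received compound via pintool and were incubated for 48 or 72 hr prior to CellTiter-Glo ATP luminescence measurement.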
Potency is read from the fitted curve at half-maximal effect; tags tell the direction and shape of the fitted curve.

Row | SMILES | Potency
1 | CN1c2cc(C(=O)Nc3ccc(Cl)c(Cl)c3)ccc2C(=O)N2CCCCCC21 (centres undefined) | inconclusive: 79.4 µM [inhibitor, partial curve, poor fit]
2 | CCCS(=O)(=O)NCc1cccnc1Oc1cccc(C(F)(F)F)c1 | inactive
3 | CC(C)N1C[C@@H]2CN(C(=O)CCCn3ccnc3)C[C@]2(C(=O)O)C1 | inactive
4 | CCOc1ccccc1NC(=O)CN1C(=O)NC(c2ccc(Cl)cc2)C2=C1COC2=O (centres undefined) | inconclusive: 28.2 µM [inhibitor, partial curve]
5 | O=C(CCc1ccccc1)N1CCC(N2C(=O)[C@H]3CN(Cc4ccccc4)C[C@H]3C2=O)CC1 | inactive
6 | COc1ccccc1-c1cc2c(ccn2C)c(C(=O)NCc2cccnc2)n1 | inconclusive: 44.7 µM [inhibitor, partial curve, poor fit]
7 | O=C(NCc1ccccn1)C1c2ccccc2C(=O)N(C2CCCC2)C12CCCCC2 (centres undefined) | inconclusive: 50.1 µM [inhibitor, partial curve, poor fit]
8 | O=C(NCC1CCCN(C(=O)c2ccc3[nH]ccc3c2)C1)c1ccc(-c2ccccc2)cc1 (centres undefined) | inconclusive: 25.1 µM [inhibitor, partial curve, poor fit]
9 | Cn1nc(C(=O)N2CCC[C@H](n3c(=O)n(CC4CC4)c4cccnc43)C2)c2ccccc21 | inconclusive: 50.1 µM [inhibitor, partial curve, poor fit]
10 | O=C([C@H]1CCC[C@H](O)C1)N(CCC1=CCCCC1)Cc1ccccc1 | inconclusive: 56.2 µM [inhibitor, partial curve, poor fit]
11 | Cc1noc(C)c1C(=O)N1CCC([C@H]2[C@@H](Oc3ccccc3)CN2C(C)C)CC1 | inactive
12 | Cc1cc(C(=O)NCC2(COc3cnccn3)C[C@@H](O)[C@@H](O)C2)no1 (some centres undefined) | inactive
13 | O=C(Nc1cccc(-c2ccc(N3CCOCC3)nn2)c1)Nc1cc(F)ccc1F | inconclusive: 50.1 µM [inhibitor, partial curve, poor fit]
14 | O=C(NCCn1cccc1-c1nc(-c2ccccc2)no1)c1ccc(F)c(Cl)c1 | inconclusive: 35.5 µM [inhibitor, partial curve, poor fit]
15 | COc1ccc(F)cc1-c1cccc(C(=O)NCCN[S+](=O)([O-])c2c(C)noc2C)c1 | inconclusive: 50.1 µM [inhibitor, partial curve, poor fit]
16 | COCCN1CCCCCC(O)c2cc(C(=O)NCCC3=CCCCC3)ccc21 (centres undefined) | inconclusive: 56.2 µM [inhibitor, partial curve, poor fit]
17 | COc1cc2c(cc1CNc1ncncn1)CCC2 | inconclusive: 35.5 µM [inhibitor, full curve]
18 | O=C(Nc1ccc([C@@H](O)[C@H]2COCC(=O)N2Cc2ccccc2)cc1)C1CCCC1 | inconclusive: 63.1 µM [inhibitor, full curve, poor fit]
19 | O=C(Cc1ccccc1Cl)N1CCCC(n2cc(-c3nc(-c4ccccc4)no3)nn2)C1 (centres undefined) | inconclusive: 44.7 µM [inhibitor, partial curve, poor fit]
20 | CCOC1CCOC2(CCN(C(=O)Nc3ccc(C)c(C)c3)CC2)C1 (centres undefined) | inactive
21 | CC(=O)N1CC2(CCN(CCS(C)(=O)=O)CC2)CC1C(=O)O (centres undefined) | inconclusive: 100 µM [inhibitor, single point]
22 | CCc1ccc(NC(=O)NCC2CCOCC2)cc1 | inactive

Row | SMILES | Potency
23 | CC(=O)c1cccc(NC(=O)Cn2c(N3CCc4ccccc4C3)nc(C)cc2=O)c1 | inconclusive: 44.7 µM [inhibitor, partial curve, poor fit]
24 | C=CCNC(=O)CN1CC2CC(C1)[C@H]1CCCC(=O)N1C2 (some centres undefined) | inactive
25 | CCc1ncc(C(=O)N2CCN(c3ccc(Cl)c(Cl)c3)CC2)cn1 | inconclusive: 44.7 µM [inhibitor, partial curve]
26 | COc1cccc(CN2Cc3cc(NC(=O)Cc4cccs4)ccc3OCC2=O)c1OC | inconclusive: 50.1 µM [inhibitor, partial curve, poor fit]
27 | O=C1CCCCC(CNC(=O)c2nccc3ccccc23)N1 (centres undefined) | inactive
28 | CC1(c2ccccc2)N(Cc2ncccn2)C(=O)OC12CCN(C(=O)Cc1ccc(Cl)cc1)CC2 (centres undefined) | inconclusive: 50.1 µM [inhibitor, single point]
29 | COc1cc(F)ccc1-c1cn(C)c(=O)n2cc(COc3ccc(C(=O)O)cc3)nc12 | inconclusive: 10 µM [inhibitor, full curve, poor fit]
30 | CN1CC(=O)N(c2ccc(Cl)cc2)Cc2c(NC3CCCCC3)ncnc21 | inconclusive: 50.1 µM [inhibitor, single point]
31 | COc1cc(C)c(CN2CCN3C(=O)CNC(=O)C3C2)cc1C(C)C (centres undefined) | inactive
32 | O=C(NCc1ccc(F)cc1)c1cc(C2CC2)nc2onc(C3CCCN3)c12 (centres undefined) | inactive
33 | O=C(Cc1ccc(F)cc1)N1CCN(c2ccc3nnc(-c4ccccc4)n3n2)CC1 | inconclusive: 44.7 µM [inhibitor, partial curve, poor fit]
34 | Cc1ccccc1C(=O)N1CCCN(C)c2ccccc21 | inconclusive: 39.8 µM [inhibitor, partial curve]
35 | COCCNC(=O)CCc1c(C)nn(-c2cccc(C)c2)c1Oc1ccccc1 | inconclusive: 44.7 µM [inhibitor, partial curve, poor fit]
36 | O=C(Cc1ccccc1)NCCC1CCN(C(=O)Nc2cc(F)ccc2F)CC1 | inactive
37 | COC1CCN(S(=O)(=O)N2CCCC(C)(c3ccccc3)C2)CC1 (centres undefined) | inconclusive: 44.7 µM [inhibitor, partial curve, poor fit]
38 | CC(=O)NC1CCN(c2ccc3nnc(C)n3n2)CC1 | inconclusive: 28.2 µM [inhibitor, partial curve, poor fit]
39 | Cc1nn2c(c1-c1ccccc1C(C)C)N([S+](=O)([O-])c1ccc(C(C)C)cc1)CCC2 | active: 22.4 µM
40 | OCc1cc(CC2(NC3CCC(CO)CC3)COC2)no1 (centres undefined) | inconclusive: 112 µM [inhibitor, single point]
41 | C[S+](=O)([O-])N1CCCC(c2nn(-c3cccc(Cl)c3)c(=O)[nH]2)C1 (centres undefined) | inconclusive: 70.8 µM [inhibitor, single point]
42 | COc1ccccc1CNC(=O)C1(CCO)CCN(c2ncccn2)C1 (centres undefined) | inactive
43 | CNC(=O)c1cc(-c2ccc(OC)c(OC)c2)cc2c1OCCN2Cc1cccnc1 | active: 22.4 µM
44 | O=c1c2nc(-c3ccoc3)ccc2ncn1-c1ccc(F)cc1F | inconclusive: 89.1 µM [inhibitor, partial curve, poor fit]

Row | SMILES | Potency
45 | COc1ccccc1CN1CC(CNC(=O)c2ccccc2)C2(C1)CN(c1ccccc1)C2 (centres undefined) | inconclusive: 50.1 µM [inhibitor, partial curve, poor fit]
46 | O=C(NCc1ccccc1)c1cn2cc(-c3cccc(C(F)(F)F)c3)sc2n1 | inactive
47 | C[C@H](NC(=O)C[C@@H]1c2nc(NC(=O)c3ccc(F)cc3)sc2C[C@@H]2[C@](C)(CO)[C@H](O)CC[C@]21C)c1ccccc1 | inconclusive: 22.4 µM [inhibitor, full curve]
48 | COc1ccccc1NC(=O)N1CCCC(Cn2c(C)nc3cccnc32)C1 (centres undefined) | inactive
49 | O=C(c1cc(Cl)ccc1F)N1CCCN(c2cc(-c3ccccc3)[nH]n2)CC1 | inactive
50 | CCC(C)NC(=O)C1COC2(CCN(C(=O)c3ccc(F)cc3F)CC2)N1C(=O)c1ccccc1 (centres undefined) | inactive
51 | CC(C)N1C(=O)C2(CCN(C(=O)c3ccccc3F)CC2)C1c1ccccc1 (centres undefined) | inconclusive: 50.1 µM [inhibitor, single point]
52 | Cc1nn2c(c1-c1ccccc1C(C)C)N(C(=O)c1cccnc1)CCC2 | inconclusive: 56.2 µM [inhibitor, partial curve, poor fit]
53 | Cc1cccc(C(=O)N2CCCC(c3noc(COc4ccccc4F)n3)C2)c1 (centres undefined) | inconclusive: 50.1 µM [inhibitor, partial curve, poor fit]
54 | Cc1ccc(CN2CC(O)CN([S+](=O)([O-])c3ccccc3)CC2=O)cc1 (centres undefined) | inconclusive: 56.2 µM [inhibitor, partial curve, poor fit]
55 | O=C(Nc1cccc(Cl)c1)C1=NO[C@@H]2CN(Cc3cccnc3)C[C@H]12 | inconclusive: 50.1 µM [inhibitor, full curve, poor fit]
56 | Cc1ccccc1C1(O)CCN(C(=O)c2ccc(C#CC(C)(C)O)o2)C1 (centres undefined) | active: 35.5 µM
57 | COc1ccc(-c2ccc(C(=O)N3CCC(N[S+](C)(=O)[O-])CC3)cc2)nn1 | inactive
58 | Cc1nc(CC(=O)NCc2ccc3[nH]c(-c4ccc(F)cc4)c(C)c3c2)cs1 | inconclusive: 56.2 µM [inhibitor, partial curve, poor fit]
59 | COCCN1CCCCCC(O)c2cc(C(=O)NCCc3ccccn3)ccc21 (centres undefined) | inactive
60 | COc1ccccc1CC(=O)N1CCC(n2cc(-c3nc(C)no3)nn2)CC1 | inactive
61 | O=C(NCCCc1ccccc1)c1n[nH]c2c1CN(C(=O)c1c(F)cccc1F)CC2 | inconclusive: 12.6 µM [inhibitor, full curve, poor fit]
62 | COc1ccc(C(=O)N[C@@H]2CCC[C@@H]2C(=O)NCc2ccc(C)o2)cc1 | inconclusive: 50.1 µM [inhibitor, partial curve, poor fit]
63 | Cc1ncsc1CN1CCCCCNC(=O)[C@@H]2CCC[C@@H]21 | inconclusive: 50.1 µM [inhibitor, partial curve, poor fit]
64 | Cc1cccc(NC(=O)CN2C(=O)NC3(CCC(C(C)(C)C)CC3)C2=O)c1C (centres undefined) | inconclusive: 70.8 µM [inhibitor, partial curve, poor fit]
